The results in this text go back to PubChem BioAssay AID1159614 (National Center for Advancing Translational Sciences (NCATS), 2016).

The campaign covered roughly 45,000 compounds. About 65 (0.1%) were called active. Calls come from the whole dose curve; as a rule, active = well fitted activation curve with a large enough effect; inconclusive = small, poorly fitted or top-dose-only effect; inactive = no such curve, though single readings can be large or run the other way. Some of the results follow.

UniProt P54803, sequence (P54803 whole entry, looked up): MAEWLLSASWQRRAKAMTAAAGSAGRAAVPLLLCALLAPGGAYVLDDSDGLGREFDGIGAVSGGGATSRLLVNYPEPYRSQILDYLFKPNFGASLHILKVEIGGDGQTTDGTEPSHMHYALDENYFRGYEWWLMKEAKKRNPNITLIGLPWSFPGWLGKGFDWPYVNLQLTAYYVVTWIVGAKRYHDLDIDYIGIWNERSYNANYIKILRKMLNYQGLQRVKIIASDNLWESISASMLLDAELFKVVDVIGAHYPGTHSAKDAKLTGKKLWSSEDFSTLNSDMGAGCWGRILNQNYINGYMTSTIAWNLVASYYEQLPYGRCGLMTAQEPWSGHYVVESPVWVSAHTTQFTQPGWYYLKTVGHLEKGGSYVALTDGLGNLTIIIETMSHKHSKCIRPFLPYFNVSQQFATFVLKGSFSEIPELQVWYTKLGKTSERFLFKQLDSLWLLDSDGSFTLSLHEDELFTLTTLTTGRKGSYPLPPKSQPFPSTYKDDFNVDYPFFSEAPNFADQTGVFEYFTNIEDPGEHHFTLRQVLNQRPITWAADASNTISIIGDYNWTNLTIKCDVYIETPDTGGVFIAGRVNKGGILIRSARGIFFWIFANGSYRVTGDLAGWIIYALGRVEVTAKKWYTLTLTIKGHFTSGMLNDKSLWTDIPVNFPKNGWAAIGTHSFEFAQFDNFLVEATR

This assay has as its target Galactocerebrosidase (Homo sapiens) (UniProt P54803). As to the kind of experiment: A Novel Cell-Based Assay to Identify Small Molecules for B -Galactocerebrosidase. Note: 0% is about no effect; nearly all actives have a fitted effect of over 65% in size. The conditions noted are these: 145M-Twi-hGALC-G270D cells (Twitcher mouse brain line with human GALC G270D), HMU-beta-Gal fluorescence, 48 h; series mostly up to 57.5 µM; activation: at the top concentration. An outline of the steps:
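Live 145M-Twi cells (Twitcher mouse brain-derived, GALC-null) stably expressing human GALC-G270D, with a wild-type GALC line, were compound-treated. Residual GALC activity was then read as fluorescence from 0.1 mM final HMU-β-gal at pH 5.2; higher signal means activation.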
For `Cc1ccc(-n2c(=O)c3oc4ccccc4c3n(Cc3ccccc3F)c2=O)cc1C`, the “activation” value is inactive: -17.9%.
For `CC(C)CCNC(=O)C1CCC(Cn2c(=O)c3sccc3n(CC(=O)NC(C)C)c2=O)CC1` (stereo unspecified) the value was inactive: 7.69%; for `O=C(CN1C(=O)CCSc2ccccc21)Nc1ccccc1F`, inactive: -3.37%; for `CCOc1ccc(CCNC(=O)C2COc3ccccc3C2)cc1OCC` (stereo unspecified), inactive: -7.96%.
The same measure for `CCOC(=O)c1c(NC(C)=O)c2c3c(sc2n1Cc1nc(-c2ccccc2C)oc1C)CCCC3`: inactive: 4.43%; for `O=C(Nc1nc2ccc(F)cc2s1)c1nc(S(=O)(=O)Cc2ccccc2)ncc1Cl`: inactive: -13.8%.
As for `COc1ccc(NC(=O)CSc2nc3c(oc4ccccc43)c(=O)n2-c2ccc(C)c(C)c2)cc1`, the “activation” value is inactive: -5.84%.
Turning to `CC1CN(C(=O)CCC(=O)NCc2ccc(F)cc2)c2cc(Cl)ccc2O1` (stereo unspecified), the “activation” value was inactive: -7.41%.
In the case of `O=C(c1ccc2c(c1)N(Cc1ccc(Cl)cc1)C(=O)c1ccccc1S2(=O)=O)N1CCCCC1`, the “activation” value was inactive: -2.96%.
The same measure for `CCCNC(=O)C1CCN(S(=O)(=O)c2ccc3c(c2)CCCN3C(C)=O)CC1`: inactive: -25.5%; for `COc1cccc(C(=O)Nc2ccccc2OCc2cc(=O)n3cc(C)ccc3n2)c1`: inactive: -9.32%.
For `CCc1ccc(NC(=O)CSc2nc3n[nH]c(C)c3c(=N)n2-c2ccccc2C)cc1` the value was inactive: -8.75%.
As to `Cc1cc2nc(-c3cc(NC(=O)c4cc5ccccc5o4)ccc3Cl)oc2cc1C`, the “activation” value was inactive: -10.4%.
The same measure for `Cc1oc(-c2ccc(Cl)cc2)nc1CS(=O)CC(=O)NCc1ccc(Cl)cc1` (stereo unspecified): inactive: -19.3%.
The same measure for `CC(C)N(Cc1ccccc1)C(=O)CCS(=O)(=O)c1cc2c(cc1Cl)NC(=O)CO2`: inactive: 2.63%.
For the compound `Cc1ccc2nc(-c3ccc(O)cc3)c(Nc3ccc4c(c3)OCO4)n2c1`, the “activation” value was inactive: -12.4%.
The same measure for `Cc1cc(NC(=O)C(C)C)cc(-c2nc3ncccc3o2)c1O`: inactive: -6.88%.
Take `Cc1cc(C)n2nc(SCC(=O)Nc3ccccc3)nc2n1`: the “activation” value was inactive: -16.9%.
Turning to `O=C1CC(c2ccccc2C(F)(F)F)c2c(c3ccccc3[nH]c2=O)O1` (stereo unspecified), the “activation” value is inactive: 1.53%.
For `N#Cc1c(NC(=O)c2cc3nc(-c4ccc(Br)cc4)cc(C(F)(F)F)n3n2)sc2c1CCCC2` the value was inactive: -16.2%.
As for `Cc1ccccc1OCc1nnc(SCc2cc(=O)c3ccccc3[nH]2)n1C`, the “activation” value is inactive: 15.4%.
For the compound `CCOC(=O)C1=C(CS(=O)(=O)c2c(C)cc(C)cc2C)NC(=O)NC1c1cccc(OC)c1` (stereo unspecified), the “activation” value is inactive: -5.33%.
For `COc1ccccc1N1CCN(C(CNC(=O)C(=O)NCCCN(C)C)c2cccnc2)CC1` (stereo unspecified) the value was inactive: -4.5%; for `COc1ccc(N(CC(=O)NCCc2cccc(C)c2)S(=O)(=O)c2c(C)nn(C)c2C)cc1`, inactive: -9.36%; for `CCOc1ccc(NC(=O)C2Cc3ccccc3N2C(=O)c2ccccc2)cc1` (stereo unspecified), inactive: -9.36%.
In the case of `COCc1cc(C)nc2sc3c(c12)NC(c1ccc(O)cc1)N(c1ccc(OC)cc1)C3=O` (stereo unspecified), the “activation” value is inactive: -17.8%.
The same measure for `COC(=O)c1cccc(Nc2c(-c3ccc(O)c(OC)c3)nc3nc[nH]n23)c1`: inactive: -15.5%.
As to `Cn1c(=O)c2c(ncn2CC(O)CO)n(C)c1=O` (stereo unspecified), the “activation” value was inactive: -6.24%.
For `CCOc1ccc(-c2c(C)nn3c(C)c(C(=O)Nc4ccccc4C(=O)OC)cnc23)cc1OCC` the value was inactive: -5.66%; for `Cc1ccc(-c2nc3cc(C(C)C)ccc3o2)cc1NC(=O)c1cccs1`, inactive: -0.392%.
Regarding `COc1ccccc1NC(=O)Cc1c(C(=O)O)[nH]c2ccc(Cl)cc12`, the “activation” value is inactive: -26.7%.
The same measure for `COc1cc(Cn2c(=O)sc3ccccc32)ccc1OC(C)C`: inactive: -10.7%.
The same measure for `Cc1cccc(NC(=O)CSc2nc3ccc(NC(=O)c4ccco4)cc3s2)c1`: inactive: -21.5%.
Turning to `COCCn1c(C)cc(O)c(C(c2ccccc2)N2CCN(C)CC2)c1=O` (stereo unspecified), the “activation” value was inactive: 12.5%.
The same measure for `CCCCOc1ccc(CNC(=O)C2CCN(c3nnc(-n4cccc4CNc4ccc(C)cc4)s3)CC2)cc1`: inactive: -5.17%.
Turning to `COc1cc(Br)c(/C=C(\C#N)c2nc3ccccc3[nH]2)cc1OC`, the “activation” value was inactive: -6.21%.
With `CC(NC(=O)c1cc(Sc2ccc(F)cc2F)nc2ccccc12)c1ccccc1` (stereo unspecified), the “activation” value was inactive: -10.9%.
In the case of `Cc1ccc(C)c(N2CCN(CCCNC(=O)Nc3cc(Cl)ccc3C)CC2)c1`, the “activation” value was inactive: 13.6%.
`CCc1nn(CC(=O)N2CCCCC2)c(=O)c2cc3sccc3n12`: the “activation” value is inactive: -6.91%.
In the case of `COc1ccc(CNC(=O)Cc2csc3ccccc23)cc1OC`, the “activation” value was inactive: -9.11%.
The same measure for `COc1cccc(NC(=O)CCNS(=O)(=O)c2ccc(Br)s2)c1`: inactive: -10.1%; for `CCOc1ccc(-c2nnc(SCC(=O)NCCC(C)C)nc2-c2ccc(OCC)c(OC)c2)cc1OC`: inactive: -15.3%; for `COc1ccc2nc(NC(=O)c3nc(SCc4ccc(F)cc4)ncc3Cl)sc2c1`: inactive: -15.7%.
In the case of `Cc1cn2c(=O)c(S(=O)(=O)NCCc3ccccc3)c(C)nc2s1`, the “activation” value is inactive: -9.44%.
As to `COc1cccc(C(=O)NCC(c2ccc(N(C)C)cc2)N2CCCC2)c1OC` (stereo unspecified), the “activation” value is inactive: -12.9%.
For `CC(C)CN1CCc2nc(N3CCN(c4ncccn4)CC3)ncc2C1`, the “activation” value was inactive: -17.5%.
For `Cc1ccc(N2C(=O)CSC23C(=O)N(CC(=O)NC2CCCCC2)c2ccccc23)cc1` (stereo unspecified) the value was inactive: -27.1%; for `CC(C)OCCCNC(=O)c1ccc(-n2c(-c3ccccc3)cc3c2CCCC3)cc1`, inactive: -14.1%; for `CCc1ccccc1NC(=O)C1CCC(CNS(=O)(=O)c2ccc3c(c2)CC(C)N3C(C)=O)CC1` (stereo unspecified), inactive: -9.44%.
The same measure for `Cc1ccc(S(=O)(=O)c2nnn3c2nc(N2CCN(c4ccc(F)cc4)CC2)c2cc(Cl)ccc23)cc1C`: inactive: 6.18%.
The same measure for `Cc1ccc(N2CCN(C(=O)Cc3c(C(=O)O)c(C)cn3C)CC2)c(C)c1`: inactive: -3.27%.
With `O=C(Nc1ccc(F)cc1)[C@H](CSCc1ccccc1)N1Cc2ccccc2C1=O`, the “activation” value was inactive: 1.77%.
`O=C(COC(=O)CCCC1=NS(=O)(=O)c2ccccc2N1)Nc1ccc(Br)cc1`: the “activation” value is inactive: -29.1%.
For `COc1ccc2nc(SCC(=O)c3c(C)[nH]c4ccccc34)nc(C)c2c1`, the “activation” value was inactive: -7.88%.
For `CCOc1ccc(OCC)c(NC(=O)C2CCN(S(=O)(=O)c3ccc(Br)s3)CC2)c1` the value was inactive: -7.26%.
For `COc1ccc(-c2nc(C)c(CCNC(=O)Cc3ccc(F)cc3)s2)cc1OC` the value was inactive: -10.6%; for `CCc1ccc(NC(=O)C2CCN(C(=O)N3CC(CC)Oc4ccccc43)CC2)cc1` (stereo unspecified), inactive: -12.9%.
For `CCc1ccc(NC(=O)CSc2nc3nccnc3c(=O)n2CCc2c[nH]c3ccccc23)cc1` the value was inactive: -13.4%.
With `Cc1cccc(NC(=O)N2CCc3c(sc4c3CCCC4)C2c2ccc(F)cc2)c1` (stereo unspecified), the “activation” value was inactive: -10.5%.
For `COc1cccc(-n2c(=O)c3c(C)c(C(=O)N(C)C)sc3n(CC(=O)NCCc3ccc(OC)c(OC)c3)c2=O)c1` the value was inactive: 0.474%.
Regarding `Cc1cccc(CSc2cn(CC(=O)N3CCCC3)c3ccccc23)c1`, the “activation” value is inactive: -11.8%.
Turning to `CCC(Oc1ccccc1)C(=O)Nc1ccc2oc(-c3ccc(OC)cc3)nc2c1` (stereo unspecified), the “activation” value is inactive: -17.7%.
The same measure for `CCC(C)(CN(C)C)OC(=O)c1ccccc1` (stereo unspecified): inactive: -28.3%.
The same measure for `CC(=O)Nc1ccc(NC(=O)CCNS(=O)(=O)c2cccc3nsnc23)cc1`: inactive: 1.96%; for `Cc1ccccc1CNC(=O)Cn1ncn2nc(-c3cccs3)cc2c1=O`: inactive: -14%; for `CCOc1ccccc1CNC(=O)c1cc2cc(S(=O)(=O)N3CCCCC3)ccc2n1C`: inactive: 1.79%.
For `COc1cccc(NC(=O)Cn2cc(S(=O)(=O)N3CCCC3)c(S(=O)(=O)N3CCCC3)c2)c1` the value was inactive: -27.2%; for `CCc1ccc2oc(-c3cccc(NC(=O)c4ccc(N5CCC(C)CC5)c([N+](=O)[O-])c4)c3)nc2c1`, inactive: -13.8%.
In the case of `Cc1ccc(CNC(=O)CSCc2ccc(F)cc2)cc1`, the “activation” value is inactive: -0.186%.
With `O=S(=O)(c1ccccc1)n1nc(-c2ccccc2)nc1NCc1ccc(Cl)cc1`, the “activation” value is inactive: -30.2%.
As to `CCOc1cccc(CC(=O)N2CCc3c([nH]c4ccccc34)C2c2ccc(F)cc2)c1OCC` (stereo unspecified), the “activation” value was inactive: -10.9%.
The same measure for `CCOc1ccc(N(CC)S(=O)(=O)N2CCCC(C(=O)NCc3ccccc3Cl)C2)cc1` (stereo unspecified): inactive: -15.2%; for `O=C(COc1ccc(S(=O)(=O)NC2CCCCC2)cc1)Nc1ccc(C(F)(F)F)cc1`: inactive: -17.9%.
For the compound `Cc1cc(N2CCCCC2)nc2ccc(NC(=O)/C=C/c3ccccc3OC(C)C)cc12`, the “activation” value was inactive: -24.8%.
For `O=C(Cc1cccc([N+](=O)[O-])c1)NCc1nc2cccnc2n1Cc1ccc(F)cc1` the value was inactive: -7.92%; for `CC(=O)c1cccc(NC(=O)C2CCCN(c3nnc(-n4cccc4)s3)C2)c1` (stereo unspecified), inactive: -24.2%; for `COc1cc(C2N=C(N)Nc3nc4ccccc4n32)ccc1OCCC(C)C` (stereo unspecified), inactive: -18.3%.
As to `CCOc1ccc(CC(=O)Nc2c(C(=O)c3ccc(C)cc3)oc3ccccc23)cc1OCC`, the “activation” value is inactive: -16.7%.
For `CCC(=O)N1CCc2cc(Br)cc(S(=O)(=O)N3CCCC(C(=O)Nc4cccc(Cl)c4C)C3)c21` (stereo unspecified) the value was inactive: 15.3%.
For `CCCCNC(=O)CCn1c(=O)c2ccccc2n(Cc2ccccc2C#N)c1=O` the value was inactive: -10.4%; for `O=C(O)CCc1nc2ccccc2[nH]1`, inactive: -10%; for `CCc1ccccc1NC(=O)c1ccc2nc(CCc3ccccc3)oc2c1`, inactive: -11.4%.
The same measure for `Cc1ccc(C(=O)COC(=O)C(CC(C)C)NC(=O)C2CCC(C)CC2)cc1` (stereo unspecified): inactive: -6.56%; for `Cc1ccccc1-c1nc(CS(=O)(=O)CC(=O)N2CCN(c3ccccc3)CC2)c(C)o1`: inactive: -5.58%; for `Cn1c(=O)cc(OCCCC(=O)Nc2ccc(F)cc2)c2ccccc21`: inactive: -14.7%.
For `CCCN(CCC)CCCNC(=O)C1CCCN(S(=O)(=O)c2cccc3nsnc23)C1` (stereo unspecified), the “activation” value was inactive: -7.3%.
For `CCOc1ccc(NS(=O)(=O)c2cc(Br)cc3c2N(C(=O)C2CC2)CC3)cc1` the value was inactive: -7.4%.
Consider `CCOc1ccc(CCNC(=O)Cn2nnc(-c3ccccc3)n2)cc1OCC`, for which the “activation” value was inactive: -16.3%.
The same measure for `CC(=O)Nc1cccc(C(=O)NCc2ccc3c(c2)CCN3C(=O)c2ccccc2)c1`: inactive: -8.19%; for `CCCCNC(=O)CSc1nc2nc(C)c(Cc3ccccc3C)c(C)n2n1`: inactive: -7.87%.
Turning to `COc1cc(NS(=O)(=O)c2ccc(NC(=O)c3ccccc3C(=O)O)cc2)nc(OC)n1`, the “activation” value was inactive: -5.02%.
For `COc1cc(OC)c(NC(=O)NC(C)c2c(-n3cccc3)sc(C)c2C)cc1Cl` (stereo unspecified) the value was inactive: 2.42%.
Turning to `Cc1ccc2cccc(NC(=O)c3ccc(-c4cccc([N+](=O)[O-])c4)o3)c2n1`, the “activation” value is inactive: 5.03%.
The same measure for `CCC1CCc2nc3sc(C(=O)Nc4ccc(F)cc4F)c(N)c3cc2C1` (stereo unspecified): inactive: -17.6%; for `CCOC(=O)c1cc(C)n(CC2CCC(C(=O)Nc3ccc(Cl)cc3)CC2)c1C` (stereo unspecified): inactive: -22.4%.
For `COc1ccc(C(=O)N2CC(=O)Nc3ccc(F)cc3C2c2ccc(F)cc2)c(OC)c1` (stereo unspecified) the value was inactive: -9.21%.
